± gives the standard deviation of the averaged measurements. The list shows a part of the results.
test system: PfAP2-I AP2 domain 3 (GST-tagged); experiment: gcPBM binding intensity (ln(normalized median fluorescence intensity)); higher = stronger DNA binding
In short: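 Binding intensity values are the highest Masliner-normalised natural-log median intensity among replicate spots of either probe orientation. The binding step lasted 1 h in 1× PBS with 1% milk, 0.2 mg/ml BSA, 0.5% salmon testes DNA and 0.03% Triton X-100, using GST-tagged P. falciparum DNA-binding domains expressed in E. coli on an Agilent 4 × 180k array of primer-extended double-stranded 36-bp intergenic genomic probes plus negative controls. Alexa488 anti-GST antibody and a 488 nm scan detected bound protein.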

Row | Sequence | gcPBM binding intensity (ln)
1 | GGATGGAGTAGTTAAGCATAATAAATAAAATTATGT [CACACA_negctrl_site578] | 7.81 ± 0.45
2 | GTTTTAAACAAAAATTGTACAATATAATCTTCCTAT [XGTACX_site2851] | 7.75 ± 0.5
3 | ATATATATATAATTTTGTACATAATAGCAATTCTAA [XGTACX_site653] | 9.06 ± 0.085
4 | CAAAACCTTTTATGTACACACATATACATCCCACTT [CACACA_site5716] | 8.17 ± 0.37
5 | AATAGCTAGCTGTGCACACAAACATATTTTCCAAAT [CACACA_site880] | 9.55 ± 0.16
6 | AACAACTATTAATTTACACACATGTATATATTTTAC [CACACA_site3116] | 8.01 ± 0.71
7 | AAAAAAATTGGGAAAAGTACTTGCAGCTAGCTAAAA [XGTACX_site5178] | 7.82 ± 0.83
8 | TTAAAAAAAATTTCAAGTACAAAGTAATATATATAT [XGTACX_site5718] | 8.96 ± 0.15
9 | AAACAAATATAATATTGTACATATATATATATATAT [XGTACX_site3105] | 9.46 ± 0.76
10 | GGATTGATAAGTGGTACACACATATATATTATATAT [CACACA_site2866] | 7.99 ± 0.2
11 | AAATATAAAAATAGCACACATATATACCTATATATA [CACACA_site4204] | 7.97 ± 0.44
12 | GCATTGGGAATATATAGTACATATATATATATATAA [XGTACX_site2967] | 7.81 ± 0.48
13 | CAGACGCACGTATTTGCACACATTGCCACGTAATTA [CACACA_site3349] | 9.79 ± 0.13
14 | TTTTTCTTTTTCTTTTTTTCTTTTTTTTTTTTTTTC [GTGCAC_negctrl_site727] | 7.58 ± 0.83
15 | AACCATTCAACTGATGCATGCATTTAACATATAAAT [TGCATGCA_site961] | 8.07 ± 0.64
16 | CAAACAATTAAACAAACACACATATACAAGTATTTA [CACACA_site5177] | 7.46 ± 0.37
17 | TATATTTACTTATGAAGTACATATATATATATATAT [XGTACX_site5069] | 9.36 ± 1
18 | TGTTCTTTTTATACTACACACTGATAAAAAAACAAA [CACACA_site3001] | 8.2 ± 0.42
19 | TTTAAGTTTTTACTTTGTACGTATTATAATAAAATC [XGTACX_site5683] | 7.94 ± 0.41

Row | Sequence | gcPBM binding intensity (ln)
20 | ATAATAAAAAATACAAGTACACATATTATATATATA [XGTACX_site5355] | 8.68 ± 0.35
21 | TTTAAAACCTTACATACACACAAATATATATATATA [CACACA_site677] | 9.32 ± 0.24
22 | AATGCTATCATTAATGCACACATTTAAAATTAATAT [CACACA_site3548] | 11 ± 0.55
23 | AACACAAGAACAGAACGTACACACACATATATATAT [XGTACX_site7347] | 9.11 ± 0.11
24 | AGGTGTGAGACCACGTTCACAAAATAAAATACATAA [CACACA_negctrl_site326] | 7.76 ± 0.64
25 | ACATCAAGCAGACACACACACACACCCACCCACCCA [CACACA_site8012] | 8.68 ± 0.6
26 | CAGGCACTAATAAACACACACATATAAATATAAATA [CACACA_site6320] | 7.88 ± 0.4
27 | TTTTTTTTTTTTTTTTGTACTCATACATACTATCAT [XGTACX_site3650] | 8.24 ± 0.79
28 | AATTTCTACTATTGTATGCACTTTCATACATACATA [GTGCAC_site9924] | 9.525 ± 0.078
29 | TTTATTTTCATATGAACACACATATTTATATTATAA [CACACA_site7165] | 7.92 ± 0.5
30 | TACAATCTAAGGAGCACACAAAAATGGATAAATATA [CACACA_site933] | 7.88 ± 0.54
31 | TAATAAAAGAAAAAAAGTACAGACATATTGAATTTT [XGTACX_site5044] | 7.88 ± 0.64
32 | ATACATACATATATATGTACTTATATTTTACACATT [XGTACX_site1688] | 8.09 ± 0.52
33 | GCTTGAATAATCAATAGTACACACATATAAATATAT [XGTACX_site5964] | 8.12 ± 0.36
34 | TAATATTTATAATAGTGTACACAATTATAAACTGAA [XGTACX_site8426] | 8.26 ± 0.057
35 | ACCTTATTTATTATTGCATGTGACCATCAGATGGTA [TGCATGCA_site288] | 8.61 ± 0.73
36 | TTTATTTTTTACCAAGTGCAATATATTATAATAATA | 10.5 ± 0.6
37 | TATTTATAAGTTTACGCATGCATATAATTATTAATA [TGCATGCA_site311] | 7.63 ± 0.39
38 | TTTTTTTTTTTTTTTGTGCACAATTATTTCAATTTT [GTGCAC_site9884] | 10.9 ± 0.79

Row | Sequence | gcPBM binding intensity (ln)
39 | TTTTAAATAATTCGTAATTATAATTATGGAAAAAAG [CACACA_negctrl_site152] | 7.72 ± 0.49
40 | TGTATGTTATGTATATGTACATATCTTTGTATTTAT [XGTACX_site6920] | 7.73 ± 0.41
41 | ATTTTTTTTTTTAATACACACAATTTTGATGAAGCA [CACACA_site3157] | 8 ± 0.44
42 | ACATTACCATATAAAACACACAAACATACATACATA [CACACA_site7709] | 7.95 ± 0.45
43 | TATAATATTTGGTGCACACAAATTAACAACTGTTTA [CACACA_site3742] | 11.1 ± 0.39
44 | TTTCATAAGAGAAAGACACACAAATATATATTTATT [CACACA_site827] | 7.39 ± 0.59
45 | TATCCATGCATTTACACACACACAAAAAAAAATTCT [CACACA_site4100] | 8.48 ± 0.39
46 | ATATATATGCATAATACACACATCATATAATTAACC [CACACA_site1643] | 8.37 ± 0.57
47 | TTCATACATAGAAAATGTACATATATATATATATAT [XGTACX_site1895] | 9.29 ± 0.3
48 | AAGATATGTACTAATACACACACATATATATATATA [CACACA_site8249] | 9.42 ± 0.35
49 | AAAAAAAAAAACAATACATGCATAATATTAATAAAA [TGCATGCA_site913] | 7.79 ± 0.57
50 | TACAAAATATTTTACACACACATATAAATACAGATA [CACACA_site5447] | 7.99 ± 0.34
51 | AAAGAAAAAAAATAATGTACTTATGTATTTCAGAAA [XGTACX_site3570] | 7.49 ± 0.49
52 | TGTTTTGTTGTGTATTGTACTAATATAAATATATAA [XGTACX_site1852] | 8.02 ± 0.42
53 | TAAAAAAACGCACTCGTACACACATATTTTCTTTCT [CACACA_site3090] | 9.225 ± 0.049
54 | TTTTATGATTGACACACACACAAAAAAAAAAAAAAA [CACACA_site7860] | 8 ± 0.61
55 | TATATTTGGAAAACATGTACATATAACAATATGTAA [XGTACX_site324] | 7.7 ± 0.46
56 | AATAAAAAAGGAAACAAATTAATATATATATATATA [CACACA_negctrl_site467] | 9.38 ± 0.28
57 | AAAAAAAGAAATAATAAAAAATATATATATATATAT [GTGCAC_negctrl_site702] | 9.54 ± 0.36

From the supplement of paper PMC11417369
